According to PubChem BioAssay AID624418 (National Center for Advancing Translational Sciences (NCATS), 2012):
Out of some 410,000 compounds screened, about 530 (0.13%) were called active. This list was built around the results that the source calls inconclusive (neither active nor inactive); the mix of calls is not that of the screen. Calls come from the whole dose curve; as a rule, active = well fitted inhibition curve with a large enough effect; inconclusive = small, poorly fitted or top-dose-only effect, or another doubt; inactive = no such curve, though single readings can be large or run the other way. Potencies of inconclusive entries are doubtful fits and often do not repeat.

assay: qHTS of GLP-1 Receptor Inverse Agonists: Cytotox Screen; conditions: HEK293 cAMP-luciferase reporter cells, luminescence, 24 h; activity change, negative = inhibition: at 38.3 µM (top of the series) unless noted
In short: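 Quantitative HTS format, 1536 wells, 200 cells/uL seeded. Compounds: 23 nL, 24 h, 37 °C. Detection: luciferase reagent, luminescence at 12 min RT; decreased signal taken as cytotoxic.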
% is set by controls: 0 for no effect and ±100 for the full control effect; potency is the fitted concentration of half-maximal effect.

Row | Structure (SMILES) | Potency | activity change, negative = inhibition
1 | Cc1nc(N2CCN(C(=O)c3ccco3)CC2)c2oc3ccccc3c2n1 | inconclusive: 10 µM [inhibitor, partial curve, poor fit] | 
2 | Oc1c(C(c2ccccn2)N2CCCCC2)cc(Cl)c2cccnc12 (stereo not drawn) | inconclusive: 2.51 µM [inhibitor, partial curve, poor fit] | 
3 | C/C(=N\O)C(=O)OC1CC(C)CCC1C(C)C (stereo not drawn) | inconclusive: 11.2 µM [inhibitor, single point] | 
4 | COC(=O)Nc1c(-c2ccccc2)nc2ccccn12 |  | inactive: -25.1%
5 | Cn1cc(C(=O)CCl)c2ccccc21 | inconclusive: 28.2 µM [inhibitor, single point] | 
6 | O=C(NNc1cccc([N+](=O)[O-])c1)/C(=C\c1cccnc1)NC(=O)c1ccccc1 | inconclusive: 6.31 µM [inhibitor, partial curve, poor fit] | 
7 | CO[C@@]12[C@@H]3N[C@@H]3CN1C1=C(C(=O)C(N)=C(C)C1=O)[C@@H]2COC(N)=O | inconclusive: 8.91 µM [inhibitor, partial curve, poor fit] | 
8 | OC(COc1ccc(Cl)cc1)CN1CCC(Cc2ccccc2)CC1 (stereo not drawn) | inconclusive: 28.2 µM [inhibitor, single point] | 
9 | Oc1ccc(O)c(-c2cnns2)c1 | inconclusive: 28.2 µM [inhibitor, single point] | 
10 | S=C(NC1CCCCC1)N1CCOCCOCCN(C(=S)NC2CCCCC2)CCOCCOCC1 | inconclusive: 12.6 µM [inhibitor, single point] | 
11 | O=C(Nc1ccc([N+](=O)[O-])cc1Cl)c1cc(Cl)ccc1O | inconclusive: 2 µM [inhibitor, full curve] | 
12 | CN(C)c1ccc(C2CC(c3c(O)n(C4CCCCC4)c(=O)[nH]c3=O)=Nc3ccccc3S2)cc1 (stereo not drawn) |  | inactive: 3.39%
13 | COc1ccc(/C=N/Nc2nc(Nc3ccccc3)nc(N3CCCCC3)n2)c(OC)c1 | active: 5.01 µM | 
14 | CC1CN(CC(O)COC(c2ccc(Cl)cc2)c2ccc(Cl)cc2)CC(C)O1 (stereo not drawn) | inconclusive: 28.2 µM [inhibitor, single point] | 
15 | COc1ccc2noc3c2c1C(=O)c1ccccc1-3 | inconclusive: 10 µM [inhibitor, partial curve, poor fit] | 
16 | COc1ccc(C2N=C(c3ccccc3)C(C)(C)N2O)cc1OC (stereo not drawn) | inconclusive: 3.16 µM [inhibitor, full curve] | 
17 | Cc1nc2c3cc(F)ccc3n(Cc3ccccc3F)c2s1 | inconclusive: 7.08 µM [inhibitor, partial curve, poor fit] | 
18 | S=C(NC1CCCCCC1)NC1CCCC1 | inconclusive: 28.2 µM [inhibitor, single point] | 
